Out of some 280,000 compounds screened, about 100 (0.036%) were called active. The inconclusive results got no clear call from the source; some entries with a clear call stand among them for comparison. Calls follow the shape of the dose curve; as a rule, active = well fitted inhibition curve with a large enough effect in the signal ratio, with a control signal flat (not every such curve was filed as active); inconclusive = small, poorly fitted or top-dose-only effect, or effect the other way, or a change in a side signal; inactive = no such curve, though single readings can be large or run the other way; the % refers to the signal ratio. A potency beside an inconclusive call is a rough fit, not a confirmed value. A note “side channel” means that the fit belongs to a control or component signal, not to the main read-out.
molecular target: Muscleblind-like protein 1 (Homo sapiens) (UniProt Q9NR56); test: qHTS Assay for Inhibitors of MBNL1-poly(CUG) RNA binding; details: TR-FRET MBNL1-His/biotin-(CUG)12 binding, 665/545 ratio; activity change, negative = inhibition: at 57.5 µM (top of the series)
In short: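 TR-FRET between His-tagged MBNL1 and biotin-(CUG)12 RNA, detected with Tb anti-His antibody (0.055 ng/ul) and streptavidin-XL665 (5 nM), 60 min at room temperature. Compounds titrated 92 nM to 58 uM; 665/545 nm ratio normalized to buffer and complex controls.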
% is scaled to controls: 0 for no effect and ±100 for the full control effect; potency is read from the fitted curve at half-maximal effect; tags tell the direction and shape of the fitted curve or compound fluorescence and quenching.

UniProt Q9NR56, sequence (Q9NR56 whole entry, looked up): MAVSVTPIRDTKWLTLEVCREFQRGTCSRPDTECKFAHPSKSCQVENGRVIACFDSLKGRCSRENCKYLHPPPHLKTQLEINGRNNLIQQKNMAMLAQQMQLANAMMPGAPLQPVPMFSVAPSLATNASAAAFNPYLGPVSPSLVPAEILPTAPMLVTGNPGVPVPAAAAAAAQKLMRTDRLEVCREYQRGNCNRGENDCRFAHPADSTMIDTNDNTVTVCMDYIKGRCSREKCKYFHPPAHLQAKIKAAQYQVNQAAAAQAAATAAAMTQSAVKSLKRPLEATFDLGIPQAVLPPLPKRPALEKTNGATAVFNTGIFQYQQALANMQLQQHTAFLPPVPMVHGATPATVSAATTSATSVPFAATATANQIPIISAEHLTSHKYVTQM

| SMILES | activity change, negative = inhibition | Potency |
| --- | --- | --- |
| COc1cc2c(cc1OC)-c1cc(N3CCCCCC3)nc(=O)n1CC2 | inactive: -0.0032% |  |
| CSc1nc(C)[nH]c(=O)c1C#N |  | inconclusive: 126 µM [inhibitor, single point] |
| CC(C)(C)c1ccc(C(=O)NCCCN2CCN(CCCNC(=O)c3ccc(C(C)(C)C)cc3)CC2)cc1 | inactive: -13.6% |  |
| Cc1cnc([N+](=O)[O-])n1CCOC(=O)NC(=O)c1ccc(C(F)(F)F)cc1 |  | inconclusive: 28.2 µM [quencher, side channel, partial curve] |
| CCCN1C2CCCC1CC(NC(=O)c1ccccc1F)C2 (stereo not given) |  | inconclusive: 39.8 µM [quencher, side channel, single point] |
| O=c1oc2ccccc2cc1-c1nnc(NCc2ccco2)s1 |  | inconclusive: 8.91 µM [quencher, side channel, partial curve] |
| [O-][n+]1onc2c3cc(-c4ccccc4)nnc3ccc21 |  | inconclusive: 1.41 µM [quencher, side channel, full curve] |
| CCOC(=O)c1n[nH]n2c1nc(=S)c1ccccc12 | inactive: 32.6% |  |
| Cc1ccc(C(=O)Nc2nc3ccc(S(C)(=O)=O)cc3s2)o1 | inactive: -11% |  |
| CC[n+]1c(/C=C/C=C/N(C(C)=O)c2ccccc2)sc2ccccc21 | inactive: 13.6% |  |
| O=C1C(SCCO)=C(SCCO)C(=O)c2ccccc21 |  | inconclusive: 15.8 µM [quencher, side channel, partial curve] |
| COc1cc(C(c2c(C)[nH][nH]c2=O)c2c(C)[nH][nH]c2=O)ccc1OCc1ccc([N+](=O)[O-])cc1 |  | inconclusive: 15.8 µM [quencher, partial curve] |
| COc1ccc2[nH]c(=O)c(COC(=O)c3cccs3)cc2c1 |  | inconclusive: 35.5 µM [fluorescent, partial curve] |
| CC1CCN(C(=O)CN(C)S(=O)(=O)c2cccc3nsnc23)CC1 |  | inconclusive: 14.1 µM [quencher, side channel, partial curve] |
| Cc1ccc(NC(=O)CN2C(=O)S/C(=C\c3cccn3-c3cccc(C(=O)O)c3)C2=O)c(C)c1 | inactive: 12.8% |  |
| Cc1cccn2c(=O)c(/C=N/O)c(N3CCOCC3)nc12 |  | inconclusive: 25.1 µM [quencher, side channel, partial curve] |
| COc1cc2c(cc1OC)CN(c1ncccc1[N+](=O)[O-])CC2 |  | inconclusive: 10 µM [quencher, partial curve] |
| COc1ccc(/C=C/C(=O)Nc2nc(C)c(C(=O)N(C)C)s2)cc1 |  | inconclusive: 10 µM [quencher, partial curve] |
| COc1ccc(CNC(=O)C(c2ccc(O)cc2)N(Cc2ccco2)C(=O)c2snc(C(N)=O)c2N)cc1 (stereo not given) |  | inconclusive: 7.94 µM [quencher, side channel, partial curve] |
| COc1cc(OC)c2ccc(=O)oc2c1C(CC(=O)N1CCOCC1)c1ccc(N(C)C)cc1 (stereo not given) |  | inconclusive: 3.98 µM [quencher, side channel, partial curve] |

| SMILES | activity change, negative = inhibition | Potency |
| --- | --- | --- |
| O=C(NCCCNc1ccc(C(F)(F)F)cc1[N+](=O)[O-])c1ccc(Cl)cc1 |  | inconclusive: 35.5 µM [quencher, side channel, single point] |
| NS(=O)(=O)c1ccc(Nc2nc(-c3cccc([N+](=O)[O-])c3)cs2)cc1 |  | inconclusive: 6.31 µM [quencher, side channel, partial curve] |
| Cc1cccc2cc(C#N)c(NCCNC(=S)NCCCN3CCOCC3)nc12 | inactive: -15% |  |
| O=c1cccccc1NCc1ccccc1 |  | inconclusive: 28.2 µM [quencher, side channel, partial curve] |
| CC1(C)CC(NS(=O)(=O)c2ccc(F)cc2)CC(C)(C)N1 | inactive: 0.142% |  |
| COc1ccccc1Cn1c(=S)[nH]c2ccc(Br)cc2c1=O | inactive: 3.33% |  |
| Cc1cc(C)c2c(N)c(C(=O)N3CCN(c4ncccn4)CC3)sc2n1 |  | inconclusive: 31.6 µM [quencher, side channel, partial curve] |
| Cc1cccc2cc(C#N)c(N3CCN(C)CC3)nc12 | inactive: 11.6% |  |
| c1ccc(-c2cc(-c3nnco3)c3ccccc3n2)nc1 | inconclusive: 28.2% [phenotype inactive] |  |
| Nc1ccc2c3c(cccc13)C(=O)NC2=O |  | inconclusive: 3.16 µM [quencher, side channel, full curve, poor fit] |
| O=[N+]([O-])c1ccc(CN2CCCCCC2)cc1 |  | inconclusive: 25.1 µM [quencher, single point] |
| O=C(Nc1ccc(N2CCN(C(=O)c3ccccc3)CC2)c(Cl)c1)c1ccc(Br)o1 | inactive: 19.6% |  |
| O=c1c(-c2ccccc2)n[nH]c2ccccc12 |  | inconclusive: 14.1 µM [quencher, side channel, partial curve] |
| O=C(Nc1ccc2oc(=O)ccc2c1)c1ccccc1[N+](=O)[O-] |  | inconclusive: 25.1 µM [quencher, side channel, partial curve] |
| O=C(CNC(=O)c1cccs1)N=Nc1c(O)[nH]c2ccc(Br)cc12 |  | inconclusive: 2.82 µM [quencher, side channel, full curve] |
| CC(C)N(C(=O)C(F)(F)F)C(C(=O)NC1CCCCC1)c1ccncc1 (stereo not given) |  | inconclusive: 4.47 µM [quencher, side channel, single point] |
| Cc1ccc(Cl)cc1NC(=O)COC(=O)C12CC3CC(CC(C3)C1)C2 |  | inconclusive: 5.01 µM [quencher, side channel, full curve, poor fit] |
| CCc1nnc(NC(=O)CSc2nc3c(c(=O)n2-c2ccccc2OC)SCC3)s1 |  | inconclusive: 20 µM [quencher, side channel, partial curve] |
| CCn1c(=O)c([N+](=O)[O-])c(NCC(O)c2ccccc2)c2ccccc21 (stereo not given) |  | inconclusive: 28.2 µM [quencher, side channel, partial curve, poor fit] |
| O=C1c2cccnc2C(=O)N1Cc1ccco1 |  | inconclusive: 22.4 µM [quencher, side channel, partial curve] |
